Reference: PMC6919601, “Identification of Plasmodium dipeptidyl aminopeptidase allosteric inhibitors by high throughput screening” (PLoS ONE, 2019)
The campaign covered roughly 110,000 compounds. About 230 (0.21%) showed an effect of 50% or more. Some of the results follow.

These compounds were tested against DPAP1 (Plasmodium falciparum, UniProt Q8IIJ9) (assay: primary screen, percent inhibition; read by cleavage of a fluorogenic dipeptide substrate; higher = more effect of the substance).
Set-up: species or system P. falciparum D10 trophozoite lysates; single well
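Further: 30 min substrate incubation versus DMSO and 10 µM JCP410 controls.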

DPAP1, sequence (Q8IIJ9 whole entry, looked up): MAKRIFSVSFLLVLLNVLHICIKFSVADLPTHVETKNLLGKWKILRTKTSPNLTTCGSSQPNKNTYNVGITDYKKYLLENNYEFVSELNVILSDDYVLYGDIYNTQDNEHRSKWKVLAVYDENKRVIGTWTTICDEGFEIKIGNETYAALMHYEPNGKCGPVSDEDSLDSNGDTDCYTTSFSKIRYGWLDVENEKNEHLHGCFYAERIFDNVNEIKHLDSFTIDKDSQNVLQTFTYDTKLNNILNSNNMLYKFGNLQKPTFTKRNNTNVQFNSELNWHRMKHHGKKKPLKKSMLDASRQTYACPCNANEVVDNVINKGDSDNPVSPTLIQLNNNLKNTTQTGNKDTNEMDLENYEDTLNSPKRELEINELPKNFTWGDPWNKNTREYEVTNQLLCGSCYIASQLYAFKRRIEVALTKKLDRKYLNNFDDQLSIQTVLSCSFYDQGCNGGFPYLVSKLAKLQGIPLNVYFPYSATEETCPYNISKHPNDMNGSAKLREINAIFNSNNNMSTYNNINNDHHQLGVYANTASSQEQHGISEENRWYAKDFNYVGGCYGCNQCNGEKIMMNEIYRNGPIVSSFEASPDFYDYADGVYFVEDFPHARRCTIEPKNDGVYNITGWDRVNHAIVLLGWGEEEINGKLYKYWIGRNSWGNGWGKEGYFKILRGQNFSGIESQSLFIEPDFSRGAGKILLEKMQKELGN

Compound | % Inhibition @ 10 uM [%]
COc1ccc(C2C3=C(O)CCCC3=NC(C)=C2C(=O)N2CCOCC2)cc1Br (stereo not shown) | 2.51
COc1ccc2c(CNCc3ccccc3Cl)c(C(=O)O)n(C)c2c1 | -3.86
COc1cc(/C=C2/C(=N)N3OC(C)=CC3=NC2=O)ccc1OCCCOc1ccccc1Cl | -3.23
Cc1cccc(C(=O)NC2(C(F)(F)F)C(=O)N(Cc3ccccn3)C3=C2C(=O)CC(C)(C)C3)c1 (stereo not shown) | -1.72
O=S(=O)(c1ccccc1)c1ccc(-n2ccnc2)cc1 | -4.23
O=C(c1cccs1)N1CCN(c2ccc([N+](=O)[O-])cc2)CC1 | -3.65
CC1(C)CC(=O)C2=C(C1)NC(=O)CC2c1cc(F)cc(F)c1 (stereo not shown) | 3.67
Cc1cccn2c(=O)c3cc(C#N)c(=O)n(CC(C)C)c3nc12 | 1.12
O=Cc1c(C(=O)O)n(CCC(=O)O)c2ccccc12 | 3.24
CC(Nc1nc2c(c(=O)n(C)c(=O)n2C)n1Cc1ccccc1Cl)c1ccccc1 (stereo not shown) | 1.9
O=C(c1ccc(Br)o1)N1CCCc2ccccc21 | 3
Cc1ccc(CNC(=O)c2cc(-c3ccc(C)c(C)c3)[nH]n2)o1 | 7.04
CCCCN1C(=O)S/C(=C\c2c(NCCCO)nc3ccccn3c2=O)C1=O | 6.97
Cc1sc2nc(SCCCC(=O)NCCO)nc(N)c2c1C | -1.19
COc1ccc(C(=O)NCc2nnc(SCC(=O)N3CCC(C)CC3)o2)cc1 | 6.35
CCOc1ccccc1N1CCN(Cc2ccoc2)CC1 | -4.35
CN(C)c1ccc(/C=C/CN2CCN(c3ccc(Cl)cc3)CC2)cc1 | -2.95
CC1(C)CC(=O)C2=C(C1)OC(N)=C(C#N)C2c1ccc(OCc2ccccc2)cc1 (stereo not shown) | 1.02
CCc1ccc(C2NC(=O)c3ccccc3O2)cc1 (stereo not shown) | 5.98
CCN(CC)C(=O)c1ccc([N+](=O)[O-])o1 | -3.52
CC(C)(C)NS(=O)(=O)c1ccc(OCC(=O)N2CCc3ccccc3C2)cc1 | -5.54
COc1ccc(NC(=O)c2ccc(OC(C)C(=O)O)cc2)cc1 (stereo not shown) | 2.76

Compound | % Inhibition @ 10 uM [%]
CC(C(=O)NCCc1ccc(Cl)cc1)n1c2ccccc2c2cnn(C)c(=O)c21 (stereo not shown) | -3.79
O=C1C2C3CCC(O3)C2C(=O)N1c1ccccn1 (stereo not shown) | 5.53
CCC(C(=O)O/N=C(\N)c1cccnc1)c1ccccc1 (stereo not shown) | -2.92
CN1CCN(Cc2ccc(Cl)cc2Cl)CC1 | 3.25
O=C(COc1cccc2cccnc12)N1CCc2ccccc21 | -2.29
Cc1ccc(C(=O)N2CCN(C)CC2)cc1C | 3.09
O=C(c1nc(-c2cccc(F)c2)n2c1CCCCC2)N1CCN(c2ncccn2)CC1 | 6.2
O=C(CN1C(=O)c2ccccc2C1=O)N1CCN(C/C=C/c2ccccc2)CC1 | 3.27
O=C(O)CNC(=O)NC12CC3CC(CC(C3)C1)C2 | 1.12
Cc1s/c(=N\C(=O)c2cccnc2)n(C)c1-c1ccccc1 | -3.25
O=C1CCCN1CCCn1cnc2c3cc(Cl)ccc3nc-2c1O | -13.4
CCN1C/C(=C\c2ccc(OC)cc2OC)C(=O)/C(=C/c2ccc(OC)cc2OC)C1 | -3.79
OCCc1c(-c2ccccc2)n(Cc2ccccc2)c2ccccc12 | -1.76
CC(=O)N1CCc2c(sc3c2c(=O)n(CCc2ccccc2)c(=O)n3Cc2cc(C)ccc2C)C1 | -7.18
CC(C)OCCCn1c(=O)c2ccccc2n2c(CCC(=O)NCc3ccc4c(c3)OCO4)nnc12 | 3.54
CSc1ccc(CN2CCN(c3ccc(Cl)cc3)CC2)cc1 | -2.81
CCOC(=O)c1nnn(-c2ccc(OCC)cc2)c1C(=O)OCC | -5.27
CCOc1ccc(C2C(C(=O)Nc3cccnc3)=C(C)Nc3nc(SCc4ccccc4)nn32)cc1 (stereo not shown) | -1.2
CC1=C(C(=O)Nc2ccccc2)C(c2ccccc2)C(C#N)=C(SCc2ccccc2)N1 (stereo not shown) | 7.47
COc1ccc(Cl)cc1-n1c(SCc2cccc(F)c2)nc2nncc-2c1O | 0.238
CC(C)C(O)(c1ccccc1)C(CN1CCOCC1)c1ccccc1 (stereo not shown) | -0.551
COc1ccc(CC(=O)Nc2c3c(nn2-c2cccc(C)c2C)CS(=O)(=O)C3)cc1 | 12.2

Compound | % Inhibition @ 10 uM [%]
CC12C=CC3(CN(Cc4ccccc4)C(=O)C3C1C(=O)NCc1ccco1)O2 (stereo not shown) | -3.94
Cc1ccc(CSc2nc(C)c3c(n2)CCCC3)cc1 | 0.189
CCCC[C@H](NC(=O)c1cccc(NC(=O)OC(C)(C)C)c1)C(=O)NCC#N | -3.49
COc1ccc(CCNC(=O)c2ccc3nc(N4CCOCC4)sc3c2)cc1OC | 1.03
O=C(Cn1cc2c(n1)CCCC2)NCCCN1CCOCC1 | 6.46
CN(C)CCN(C)Cc1c(Cl)cccc1Cl | -4.04
Cc1ccsc1CN1CCN(C/C=C/c2ccccc2)CC1 | -0.261
CC(=O)Nc1ccc(S(=O)(=O)Nc2ccc(C)cc2Br)cc1 | -3.45
CCOC(=O)c1ccc(NC(=O)/C=C/C(=O)O)cc1 | 7.8
CN1CCC(N2CCN(c3ccccc3)CC2)CC1 | -0.603
CCSC1=NC(C)(C)Cc2cc(OC)c(OC)cc21 | -5.38
CC(=O)Nc1ccc(S(=O)(=O)Nc2ccc(Cl)cc2C)cc1 | 3.09
COc1ccc(-c2cc(=O)c3c(ccc4ccccc43)o2)cc1 | -7.56
CCOc1ccc(C2(O)CSC3=C(C#N)C(c4cccc(OC)c4OC)CC(=O)N32)cc1 (stereo not shown) | 3.24
Cc1cc(C)nc(NC(=O)c2cccc3ccccc23)c1 | -1.42
COc1ccc(/C=C(\NC(=O)c2ccco2)C(=O)Nc2ccc(C(C)=O)cc2)cc1 | -5.07
CCN(CC)CCNC(=O)Cn1nc(-c2ccc(Cl)cc2)ccc1=O | -0.0542
O=C(c1ccccc1Cl)N1CCC(Cc2ccccc2)CC1 | -4.4
CCOc1ccc(S(=O)(=O)N2CCN(c3ccc(Cl)cc3)CC2)cc1 | 3.21
Brc1ccc(Nc2nc(-c3ccccc3)c3cc(Br)ccc3n2)cc1 | -3.93
